Assay results as given in publication PMC9911399, “Two distinct binding modes provide the RNA-binding protein RbFox with extraordinary sequence specificity”.
Numbering of substitutions follows the chain as printed; changes in the protein carry UniProt numbers. This is one part of the list.

T1: RBFOX1 RRM RbFoxmut (Fox-RRM*) (Homo sapiens, UniProt Q9NWB1 109-208, R118D;E147R;N151S;E152T)
T1 sequence: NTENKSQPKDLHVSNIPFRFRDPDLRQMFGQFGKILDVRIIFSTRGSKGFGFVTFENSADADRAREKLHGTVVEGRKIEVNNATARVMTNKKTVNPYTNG

B1: AUUAUAA (DNA:RNA)
RNA: GGGAGACCGGAAUUCAGAUUGUCCAUUAUAAUUAAAUCCCGUCGUAGCCACCA
DNA 1: CAATCTGAATTCCGGTCTCCC
DNA 2: TGGTGGCTACGACGGGATT
B2: GGUAUAA (DNA:RNA)
RNA: B1 RNA with A25G, U26G
DNA 1: CAATCTGAATTCCGGTCTCCC
DNA 2: TGGTGGCTACGACGGGATT
B3: CAGUGCA (DNA:RNA)
RNA: B1 RNA with A25C, U26A, U27G, A28U, U29G, A30C
DNA 1: CAATCTGAATTCCGGTCTCCC
DNA 2: TGGTGGCTACGACGGGATT
B4: UUAGCAU (DNA:RNA)
RNA: B1 RNA with A25U, U27A, A28G, U29C, A31U
DNA 1: CAATCTGAATTCCGGTCTCCC
DNA 2: TGGTGGCTACGACGGGATT
B5: GCACUUG (DNA:RNA)
RNA: B1 RNA with A25G, U26C, U27A, A28C, A30U, A31G
DNA 1: CAATCTGAATTCCGGTCTCCC
DNA 2: TGGTGGCTACGACGGGATT
B6: CUAGCAC (DNA:RNA)
RNA: B1 RNA with A25C, U27A, A28G, U29C, A31C
DNA 1: CAATCTGAATTCCGGTCTCCC
DNA 2: TGGTGGCTACGACGGGATT
B7: CCGACUG (DNA:RNA)
RNA: B1 RNA with A25C, U26C, U27G, U29C, A30U, A31G
DNA 1: CAATCTGAATTCCGGTCTCCC
DNA 2: TGGTGGCTACGACGGGATT
B8: CCCACAG (DNA:RNA)
RNA: B1 RNA with A25C, U26C, U27C, U29C, A31G
DNA 1: CAATCTGAATTCCGGTCTCCC
DNA 2: TGGTGGCTACGACGGGATT
B9: UCCCGCA (DNA:RNA)
RNA: B1 RNA with A25U, U26C, U27C, A28C, U29G, A30C
DNA 1: CAATCTGAATTCCGGTCTCCC
DNA 2: TGGTGGCTACGACGGGATT
B10: GUAAUUA (DNA:RNA)
RNA: B1 RNA with A25G, U27A, A30U
DNA 1: CAATCTGAATTCCGGTCTCCC
DNA 2: TGGTGGCTACGACGGGATT
B11: UGGGAAG (DNA:RNA)
RNA: B1 RNA with A25U, U26G, U27G, A28G, U29A, A31G
DNA 1: CAATCTGAATTCCGGTCTCCC
DNA 2: TGGTGGCTACGACGGGATT
B12: GCAGACU (DNA:RNA)
RNA: GGGAGACCGGAAUUCAGAUUGUCCGCAGACUUUAAAUCCCGUCGUAGCCACCA
DNA 1: CAATCTGAATTCCGGTCTCCC
DNA 2: TGGTGGCTACGACGGGATT
B13: CGACGGU (DNA:RNA)
RNA: B12 RNA with G25C, C26G, G28C, A29G, C30G
DNA 1: CAATCTGAATTCCGGTCTCCC
DNA 2: TGGTGGCTACGACGGGATT
B14: AACAACU (DNA:RNA)
RNA: B12 RNA with G25A, C26A, A27C, G28A
DNA 1: CAATCTGAATTCCGGTCTCCC
DNA 2: TGGTGGCTACGACGGGATT
B15: CGUUCCC (DNA:RNA)
RNA: B1 RNA with A25C, U26G, A28U, U29C, A30C, A31C
DNA 1: CAATCTGAATTCCGGTCTCCC
DNA 2: TGGTGGCTACGACGGGATT
B16: AGAUUGC (DNA:RNA)
RNA: B1 RNA with U26G, U27A, A28U, A30G, A31C
DNA 1: CAATCTGAATTCCGGTCTCCC
DNA 2: TGGTGGCTACGACGGGATT
B17: GACACCC (DNA:RNA)
RNA: B12 RNA with C26A, A27C, G28A, A29C, U31C
DNA 1: CAATCTGAATTCCGGTCTCCC
DNA 2: TGGTGGCTACGACGGGATT
B18: UCUUGUG (DNA:RNA)
RNA: B1 RNA with A25U, U26C, A28U, U29G, A30U, A31G
DNA 1: CAATCTGAATTCCGGTCTCCC
DNA 2: TGGTGGCTACGACGGGATT
B19: GCCAGGA (DNA:RNA)
RNA: B1 RNA with A25G, U26C, U27C, U29G, A30G
DNA 1: CAATCTGAATTCCGGTCTCCC
DNA 2: TGGTGGCTACGACGGGATT
B20: ACCAUUU (DNA:RNA)
RNA: B1 RNA with U26C, U27C, A30U, A31U
DNA 1: CAATCTGAATTCCGGTCTCCC
DNA 2: TGGTGGCTACGACGGGATT

molecular target: T1, RBFOX1 RRM RbFoxmut (Fox-RRM*); assay: EMSA; HiTS-Eq, 1 nM pool, 10 min; buffer printed only for the single-RNA assays: 10 mM Tris pH 7.5, 150 mM NaCl, 3.4 mM EDTA, 0.001% NP-40, 30 C; settings: tags: His6 N-terminal (pET28a); label: 5' 32P
Outline: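 A pool of RNA with 7 randomized nucleotides, 5′-radiolabelled and with DNA-annealed flanks, was equilibrated at 1 nM for 10 min in 50 µL with purified RbFox RRM, wild type or mutant, across increasing protein concentrations. Free RNA was separated by 8% native PAGE, excised, reverse-transcribed, barcoded by PCR and sequenced. Relative association constants were obtained from read-count changes of each RNA species versus the control reaction and normalised to the cognate motif.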

| Binder | binding signal |
| --- | --- |
| B1 | 0.13 KA relative to UGCAUGU |
| B2 | 0.106 KA relative to UGCAUGU |
| B3 | 0.17 KA relative to UGCAUGU |
| B4 | 0.103 KA relative to UGCAUGU |
| B5 | 0.113 KA relative to UGCAUGU |
| B6 | 0.0787 KA relative to UGCAUGU |
| B7 | 0.139 KA relative to UGCAUGU |
| B8 | 0.106 KA relative to UGCAUGU |
| B9 | 0.0862 KA relative to UGCAUGU |
| B10 | 0.127 KA relative to UGCAUGU |
| B11 | 0.136 KA relative to UGCAUGU |
| B12 | 0.0704 KA relative to UGCAUGU |
| B13 | 0.113 KA relative to UGCAUGU |
| B14 | 0.0472 KA relative to UGCAUGU |
| B15 | 0.0596 KA relative to UGCAUGU |
| B16 | 0.14 KA relative to UGCAUGU |
| B17 | 0.057 KA relative to UGCAUGU |
| B18 | 0.156 KA relative to UGCAUGU |
| B19 | 0.0534 KA relative to UGCAUGU |
| B20 | 0.101 KA relative to UGCAUGU |
